From PubChem BioAssay AID1347073 (National Center for Advancing Translational Sciences (NCATS), 2019)
Screen size: about 45,000 compounds; about 200 (0.44%) were called active. Inconclusive results (about 7%) are left out. Calls come from the whole dose curve; as a rule, active = well fitted activation curve with a large enough effect; inconclusive = small, poorly fitted or top-dose-only effect; inactive = no such curve, though single readings can be large or run the other way. The list shows a part of the results.

test: qHTS of TDP-43 Inhibitors: NCGC Sytravon Library Screen; conditions: yeast TDP-43 toxicity rescue, BacTiter-Glo growth, 24 h; series mostly up to 46.1 µM; growth rescue (activation): at the top concentration; note: 0% is about no effect; nearly all actives have a fitted effect of over 55% in size
Summary of the method: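 TDP-43-expressing yeast, pregrown in raffinose, seeded at OD600 0.02 in galactose medium with compound for 24 hr at 30 deg C. Growth read by BacTiter-Glo luminescence, so rescue of toxicity appears as activation.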

SMILES | growth rescue (activation)
Cc1cc(C)nc(N2CCCC(C(=O)Nc3nnc(C(C)(C)C)s3)C2)n1 (centres undefined) | inactive: 3.78%
O=C(COc1ccc2ccccc2c1)NNC(=O)c1cccs1 | inactive: 3.62%
CCN1CCN(C(=O)c2ccc3c(c2)N(Cc2cc(C)ccc2C)C(=O)c2ccccc2S3(=O)=O)CC1 | inactive: 12.2%
CCOC(=O)Nc1ccc(N2CCOCC2)c(S(=O)(=O)N2CCOCC2)c1 | inactive: 12.2%
COc1ccc(S(=O)(=O)N2CCC(C(=O)NCc3cccnc3)CC2)cc1OC | inactive: -9.71%
COc1ccc(N2CCN(C(=O)CNC(=O)c3ccccc3Cl)CC2)cc1 | inactive: 18.7%
Cc1ccc(Cl)c(OCCCN(C)Cc2ccccc2)c1 | inactive: -4.04%
Cc1cccc(N2N=C(C(=O)OCC(=O)c3ccccc3)CCC2=O)c1 | inactive: 26.3%
CC1(C(=O)NCC2CC2)CCN1C(=O)C1(c2ccc(Cl)cc2)CC1 (centres undefined) | inactive: 29.9%
CCN(CC)S(=O)(=O)c1ccc(C(=O)N2CCN(c3ncccn3)CC2)cc1 | inactive: 0.252%
COc1ccc(/C=N/NC(=S)Nc2cc(S(=O)(=O)N3CCOCC3)ccc2N2CCOCC2)cc1O | inactive: 1.02%
Brc1ccc(COn2ccnc2)cc1 | inactive: -7.75%
CCSc1nnc2nc3[nH]c4c(C)cccc4c3nn12 | inactive: -6.47%
O=C(O)CSc1nnc(-c2cccc(S(=O)(=O)N3CCOCC3)c2)n1-c1cccc(Cl)c1 | inactive: -6.87%
Cc1ccc(NS(=O)(=O)c2cc(C(=O)N3CCCC3)ccc2C)cc1C | inactive: 4.16%
COCC1CCN(Cc2cn[nH]c2-c2cc3ccccc3o2)C1 (centres undefined) | inactive: -2.89%
Cc1ccc(NC2=NCC(=O)N2C2CCCC2)cc1 | inactive: 2.89%
CC(Oc1ccc(Cl)cc1)C(=O)Nc1ccc(S(=O)(=O)Nc2nccs2)cc1 (centres undefined) | inactive: -20.8%
COc1ccccc1-c1cnn2c(NC3CCCC3)cc(C)nc12 | inactive: -5.44%
c1ccc2c3c([nH]c2c1)CCNC3 | inactive: 0.0563%
CN(C(=O)C(C)(C)C)c1ccc(OCC(=O)N2CCc3ccccc3C2)cc1 | inactive: 13.3%
O=C(CCNC(=O)c1ccco1)Nc1ccccc1N1CCOCC1 | inactive: 3.97%
CCOC(=O)CC1C(=O)NCCN1C(=O)c1cccc(C(F)(F)F)c1 (centres undefined) | inactive: 2.78%

SMILES | growth rescue (activation)
CCOc1ccc(NC(=S)NNC(=S)Nc2cccc(C(F)(F)F)c2)cc1 | inactive: 19.3%
COP(=O)(CC(=O)c1ccccc1)CC(=O)c1ccccc1 | inactive: 10.8%
NS(=O)(=O)c1ccc(NC2=CC(=O)C(=O)c3ccccc32)cc1 | inactive: -11.4%
CCC(c1nnc(SCC(=O)Nc2ccc(Cl)cc2C(F)(F)F)n1C1CCCCC1)N(C)C (centres undefined) | inactive: -7.98%
O=[N+]([O-])c1ccc(Cl)c(NC(=S)N2CCCC2)c1 | inactive: 18.7%
c1ncn(C23CC4CC(CC(C4)C2)C3)n1 | inactive: 14.8%
NS(=O)(=O)c1cccc(NC(=O)c2cccc(-c3ccc(O)cc3)c2)c1 | inactive: 9.33%
CN(Cc1cnn(C)c1)C(=O)C1CCC(=O)N(Cc2ccc(Cl)cc2)C1 (centres undefined) | inactive: 10.9%
CCCn1c(N)c(C(=O)CSc2nnc(-c3c[nH]c4ccccc34)n2C2CC2)c(=O)[nH]c1=O | inactive: 4.33%
CN(Cc1ccccc1)C1=CC(=[N+]2CCCC2)CC(C)(C)C1 | inactive: -11.9%
CCC(C)c1ccccc1NC(=O)C(C)N(C)Cc1cccc(OC)c1 (centres undefined) | inactive: 9.09%
COc1ccc(Cn2c(=O)[nH]c3cc(C(=O)NCCc4ccc(S(N)(=O)=O)cc4)ccc3c2=O)cc1 | inactive: -15.2%
CCCCOC(=O)Nc1nnc(CCOCC)s1 | inactive: 17.5%
Cc1ccsc1/C=N/NC(=O)C1C(=O)NCC1c1ccccc1 (centres undefined) | inactive: 5.06%
CCCNC(=O)C1(C)CCN(Cc2ccc(OCc3ccccc3)cc2)C1 (centres undefined) | inactive: 1.31%
CCn1c2ccccc2c2cc(NC(=O)CNCc3ccccc3OC)ccc21 | inactive: 1.39%
COc1ccccc1NC(=O)Nc1cccc(C(=O)O)c1 | inactive: 5.63%
CSc1ccccc1NC(=O)COC(=O)/C=C/c1ccco1 | inactive: 32.5%
COc1ccccc1/C=C/C(=O)NCc1ccccn1 | inactive: 3.93%
COc1ccc(CNC(=O)COC(=O)c2cccn2C)cc1 | inactive: -16.9%
O=C(c1ccncc1)N1CCN(S(=O)(=O)c2ccccc2F)CC1 | inactive: 2.88%
N#C/C(=C\c1ccccc1)C(=O)N1CCC(C(N)=O)CC1 | inactive: -5.77%
O=C(NCc1ccc(F)cc1)c1cnc(Cl)c(Cl)c1 | inactive: 23.9%

SMILES | growth rescue (activation)
CCOc1ccccc1N(CC(=O)NC1CCCCC1)C(=O)c1nsc(Cl)c1Cl | inactive: 21.5%
O=C(CCNc1n[nH]c(=O)[nH]c1=O)N/N=C\c1cccc(OCc2ccccc2)c1 | inactive: 7.28%
COCCNC(=O)C1(C)CCCN(Cc2c(C)nn(-c3ccccc3)c2C)C1 (centres undefined) | inactive: 8.23%
O=C(Nc1cc(Br)ccc1O)c1cc(-c2ccc3c(c2)OCO3)on1 | inactive: -9.44%
CN(CCC#N)C(=O)COC(=O)c1nn(-c2ccccc2)c(=O)c2ccccc12 | inactive: -11.4%
COc1ccc(NC(=O)c2nc(S(=O)(=O)Cc3ccc(C)cc3)ncc2Cl)cc1 | inactive: 3.27%
CCCCn1c(SCC(=O)Nc2ccc(NC(C)=O)cc2)nc2ccccc2c1=O | inactive: 5.04%
COc1ccc(C(C(=O)NC2CCCCC2)N(C(=O)c2snc(C(N)=O)c2N)c2ccccc2OC)cc1 (centres undefined) | inactive: 27.5%
Clc1ccc(-c2cnc3n2CCCCC3)cc1 | inactive: 11%
COc1ccc(OCC(=O)Nn2c(-c3ccc(C)cc3)nc3ccccc3c2=O)cc1 | inactive: 2.16%
Cc1cc(C)nc(SCC(N)=O)n1 | inactive: 4.33%
CCOC(=O)C1(CCCc2ccccc2)CCN(Cc2cn(CC)nc2C)CC1 | inactive: -5.58%
COc1cccc(C2=NOC(C(=O)Nc3cccnc3Cl)C2)c1OC (centres undefined) | inactive: -4.76%
CC(C)c1nnc(NC(=O)c2nc(S(=O)(=O)Cc3ccccc3)ncc2Cl)s1 | inactive: -0.774%
Cc1ccc(C(=O)N2CCOCC2)cc1[N+](=O)[O-] | inactive: 2.65%
Cc1cccc(N(Cc2cc3ccccc3[nH]c2=O)S(C)(=O)=O)c1 | inactive: 0.0641%
CC(C)(C)c1ccc(C(=O)Nc2ccc([N+](=O)[O-])cn2)cc1 | inactive: 9.07%
Cn1c(SCC(=O)Nc2cccc(S(=O)(=O)NC3=NCCCCC3)c2)nnc1-c1ccncc1 | inactive: -9.92%
COc1ccc(C(C)(C)C)cc1NC(=O)CCCn1c(=O)oc2ccccc21 | inactive: 21.1%
CCN(c1ccccc1)S(=O)(=O)c1cc(NC(=O)CN2CCN(C)CC2)ccc1Cl | inactive: -8.25%
Cc1sc(NC(=O)COc2ccc(C(C)(C)C)cc2)c(C(=O)OC(C)C)c1C | inactive: -4.89%
O=c1c2ccccc2cnn1Cc1n[nH]c(=S)n1-c1ccccc1Cl | inactive: -2.89%
COc1cccc(-c2nc(C#N)c(N3CCN(C(=O)c4ccco4)CC3)o2)c1 | inactive: 22.2%
